Assay results reported in PubChem BioAssay (Tox21).
Inconclusive results are not listed. The call rests on the fitted dose curve; in most records, active means well fitted cell-killing curve with a large enough effect in the repeat runs; inconclusive means weak or mixed curves, or effect the other way; inactive means no such curve, though single readings can be large or run the other way. Where a structure was tested more than once in an assay, its records may differ in their call. Not every entry of the source has a single result; some have several. The other results are left out here. An entry can have further records. The values listed for one entry are repeated measurements (runs, samples, wells, individuals or studies). Marks in square brackets tell the records apart. The letters are not those of the source and start again with each entry.

Experiment: qHTS assay to identify small molecule antagonists of the glucocorticoid receptor (GR) signaling pathway - cell viability counter screen (AID 720693); further: nearly all actives have a fitted effect of over 55% in size
Potency means the concentration at half of the fitted maximal effect.

C[C@]12CC[C@@H]3c4ccc(O)cc4CC[C@H]3[C@@H]1CC[C@@H]2OC(=O)CCC1CCCC1
Potency: inactive [sample A] and inactive [sample B] and active: 54.9 µM [sample C]
